Experimental findings from the supplement of paper PMC12462457 are described below.

In the assay the test system is OVCAR8. Put plainly: cell count relative to DMSO vehicle (fold change); OVCAR8 is a high-grade serous ovarian cancer line and CX-5461 an RNA polymerase I inhibitor; higher = more surviving senescent cells (less killing). To be noted: senescence inducer: CX-5461 3 µM 48 h, then 6 d recovery (CX senescent), exposure time 24 h.

Structures are written as SMILES. Structures can show the parent of a compound that is named as a salt. ± gives the standard deviation of the averaged measurements. Some of the results follow.

With `CC(=O)Nc1cccc(-n2c(=O)n(C3CC3)c(=O)c3c(Nc4ccc(I)cc4F)n(C)c(=O)c(C)c32)c1`, the cell count (compound dose 1 µM) was 1.18 ± 0.073 and the cell count (compound dose 5 µM) stood at 1.06 ± 0.035.
The matching figures for `CC(C)c1c(C(=O)Nc2ccccc2)c(-c2ccccc2)c(-c2ccc(F)cc2)n1CC[C@@H](O)C[C@@H](O)CC(=O)O` [Atorvastatin (hemicalcium salt)]: 1.15 ± 0.26 and 0.923 ± 0.14.
As for `Cc1ncc(C[n+]2csc(CCO)c2C)c(N)n1`, the cell count was found to be 0.995 ± 0.023 (compound dose 1 µM) and 1.07 ± 0.082 (compound dose 5 µM).
Turning to `CC(C)(C)c1cnc(CSc2cnc(NC(=O)C3CCNCC3)s2)o1`, the cell count is, setting by setting: (compound dose 1 µM) 0.996 ± 0.15; (compound dose 5 µM) 1.19 ± 0.019.
With `COc1ccc(-c2cc(=O)c3c(O)c(OC)c(OC)cc3o2)cc1O` [Eupatorin], the cell count reads like this: (compound dose 1 µM) 1.17 ± 0.1; (compound dose 5 µM) 1.17 ± 0.23.
`CC(=Cc1ccc(C(=O)O)cc1)c1ccc2c(c1)C(C)(C)CCC2(C)C` displayed a cell count (compound dose 1 µM) of 1.07 ± 0.11 and a cell count (compound dose 5 µM) of 1.02 ± 0.044.
The matching figures for `COC(=O)Nc1nc2cc(C(=O)c3cccs3)ccc2[nH]1` [Nocodazole]: 1.21 ± 0.051 and 1.15 ± 0.03.
`CN1CCN(C(=O)/C=C/c2ccc([N+](=O)[O-])o2)CC1` gave a cell count (compound dose 1 µM) of 1.14 ± 0.16 and a cell count (compound dose 5 µM) of 1.07 ± 0.086.
Take `CC(=O)Nc1ccc(C(=O)Nc2ccccc2N)cc1` [Tacedinaline (CI994)]: the cell count is, setting by setting: (compound dose 1 µM) 1.2 ± 0.26; (compound dose 5 µM) 1.17 ± 0.57.
Take `COc1cc2c(Nc3ccc(NC(=O)c4ccccc4)cc3)ncnc2cc1OCCCN1CCOCC1`: the cell count turned out to be 1.15 ± 0.12 (compound dose 1 µM) and 1.12 ± 0.088 (compound dose 5 µM).
For the molecule `O=S(=O)(c1ccc2c(c1)C(=NO)c1cc(S(=O)(=O)N3CCCCC3)ccc1-2)N1CCCCC1`, the cell count is, setting by setting: (compound dose 1 µM) 0.027 ± 0.0042; (compound dose 5 µM) 0.0685 ± 0.0064.
For the molecule `CNC(=O)COc1cc2cc(Nc3nc(N4C[C@H](C)C[C@H](C)C4)ncc3Cl)ccc2n(C)c1=O`, the cell count reads like this: (compound dose 1 µM) 1.02 ± 0.052; (compound dose 5 µM) 1.07 ± 0.028.
With `CC1(C)CC[C@]2(C(=O)O)CC[C@]3(C)C(=CC[C@@H]4[C@@]5(C)CC[C@H](O[C@@H]6O[C@H](C(=O)O)[C@@H](O)[C@H](O[C@@H]7OC[C@@H](O)[C@H](O)[C@H]7O)[C@H]6O)C(C)(C)[C@@H]5CC[C@]43C)[C@@H]2C1` [Momordin Ic], the cell count runs as follows: (compound dose 1 µM) 1.02 ± 0.037; (compound dose 5 µM) 1.12 ± 0.07.
`COc1ccc([C@@H]2CC(=O)c3c(O)cc(O)cc3O2)cc1O` [Hesperetin]: the cell count reads like this: (compound dose 1 µM) 1.16 ± 0.25; (compound dose 5 µM) 1.2 ± 0.29.
Consider `O=c1cc(-c2ccccc2)oc2c(O)c(O)ccc12`, for which the cell count (compound dose 1 µM) is 0.998 ± 0.15 and the cell count (compound dose 5 µM) was determined as 0.995 ± 0.12.
The matching figures for `Oc1cc(O)c2c(c1)O[C@H](c1ccc(O)c(O)c1)[C@@H](O)C2`: 0.931 ± 0.031 and 0.977 ± 0.14.
Turning to `COc1cc(C(=O)OCCCCN=C(N)N)cc(OC)c1O[C@@H]1O[C@H](C(=O)O)[C@@H](O)[C@H](O)[C@H]1O`, the cell count by setting is: (compound dose 1 µM) 1.07 ± 0.11; (compound dose 5 µM) 1.11 ± 0.29.
Take `C=Cc1cc(O)cc2nc(-c3ccc(O)c(F)c3)oc12` [Prinaberel]: the cell count turned out to be 1.17 ± 0.12 (compound dose 1 µM) and 1.21 ± 0.24 (compound dose 5 µM).
On to `CN[C@@H](C)C(=O)N[C@H](C(=O)N1CCC[C@H]1c1nc(C(=O)c2ccc(F)cc2)cs1)C1CCCCC1`, for which the cell count by setting is: (compound dose 1 µM) 0.591 ± 0.083; (compound dose 5 µM) 0.617 ± 0.055.
For the molecule `Cc1c(C(=O)Nc2ccc(Oc3ccnc4[nH]cc(-c5ccccc5)c34)c(F)c2)c(=O)n(-c2ccc(F)cc2)n1C`, the cell count is, setting by setting: (compound dose 1 µM) 1.31 ± 0.28; (compound dose 5 µM) 1.49 ± 0.2.
With `COc1ccc(-c2ccc3c(N4CCOC[C@@H]4C)nc(N4CCOC[C@@H]4C)nc3n2)cc1CO`, the cell count is, setting by setting: (compound dose 1 µM) 0.959 ± 0.03; (compound dose 5 µM) 0.941 ± 0.11.
Consider `COc1cc(C)c(/C=C/C(C)=C/C=C/C(C)=C/C(=O)O)c(C)c1C` [Acitretin], for which the cell count reads like this: (compound dose 1 µM) 1.11 ± 0.17; (compound dose 5 µM) 0.982 ± 0.23.
Taken in the same sequence, the figures for `C[n+]1cccc(C(=O)[O-])c1` were 1.06 ± 0.11 and 1.11 ± 0.12.
The matching figures for `COc1cc2c(NC3CCN(C)CC3)cc(-c3ccc(C)o3)nc2cc1OCCCN1CCCC1`: 1.11 ± 0.072 and 1.24 ± 0.14.
The matching figures for `C/C(=N\NC(=S)N1CCC1)c1ccccn1`: 1.18 ± 0.22 and 1.43 ± 0.15.
With `O=c1[nH]c(=O)n([C@H]2C[C@H](O)[C@@H](CO)O2)cc1F` [Floxuridine], the cell count was determined as 0.998 ± 0.21 (compound dose 1 µM) and 1.08 ± 0.15 (compound dose 5 µM).
For the molecule `O=C1C(=O)N(Cc2ccc(Cl)c(Cl)c2)c2ccccc21`, the cell count reads like this: (compound dose 1 µM) 0.966 ± 0.16; (compound dose 5 µM) 1.05 ± 0.27.
Turning to `COc1cccc(-c2cc(F)c(Nc3ncccc3C(=O)O)c(F)c2)c1`, the cell count is, setting by setting: (compound dose 1 µM) 1.05 ± 0.17; (compound dose 5 µM) 1.1 ± 0.13.
With `O=C(O)C(Cc1ccccc1[N+](=O)[O-])=NNc1nc(-c2ccc(Cl)c(Cl)c2)cs1` (mixture of isomers), the cell count reads like this: (compound dose 1 µM) 1.21 ± 0.2; (compound dose 5 µM) 1.18 ± 0.036.
Consider `CCC(C)(C)C(=O)C(=O)N1CCC[C@H]1C(=O)OCCCc1cccnc1`, for which the cell count came to 0.819 ± 0.26 (compound dose 1 µM) and 1.21 ± 0.024 (compound dose 5 µM).
The matching figures for `CN1CCCC(CN2c3ccccc3Sc3ccccc32)C1` (stereo unspecified) [Mepazine (hydrochloride)]: 1.03 ± 0.047 and 0.949 ± 0.17.
Consider `CN[C@@H](C)C(=O)N[C@H](C(=O)N1CCC[C@H]1C(=O)Nc1snnc1-c1ccccc1)C1CCCCC1`, for which the cell count is, setting by setting: (compound dose 1 µM) 0.624 ± 0.29; (compound dose 5 µM) 0.769 ± 0.061.
On to `O=C(/C=C/c1ccc2ccc(C(F)(F)F)cc2n1)c1ccncc1`, for which the cell count by setting is: (compound dose 1 µM) 1.21 ± 0.13; (compound dose 5 µM) 0.135 ± 0.05.
